Measurements reported in article PMC7819943, “Rice protein-binding microarrays: a tool to detect cis-acting elements near promoter regions in rice”.
The list shows a part of the results.

Target: T1, OsWOX13 (Oryza sativa, UniProt Q5QMM3 1-267)
T1 sequence: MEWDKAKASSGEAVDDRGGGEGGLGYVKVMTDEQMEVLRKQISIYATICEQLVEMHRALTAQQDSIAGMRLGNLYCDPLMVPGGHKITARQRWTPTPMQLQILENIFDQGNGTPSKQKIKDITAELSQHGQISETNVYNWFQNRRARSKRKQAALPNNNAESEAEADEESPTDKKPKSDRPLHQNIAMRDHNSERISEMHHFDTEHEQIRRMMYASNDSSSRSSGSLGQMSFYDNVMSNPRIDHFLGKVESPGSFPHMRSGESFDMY
Experiment: protein-binding microarray (RPBM); PBS, 2% BSA, 51.3 ng/ul salmon testes DNA, 50 uM zinc acetate, 200 nM TF, 25 C, 1 h; high values mean tight binding
Conditions: protein: recombinant; tags: N-terminal polyhistidine and DsRed monomer fusion (pET32a); label: CyDye5-dUTP incorporated in the synthesized complementary strand; 3' TTTTT single-stranded linker to array surface; dsDNA, one strand shown
In short: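 Using Ni–NTA, transcription factors fused N-terminally to polyhistidine and DsRed were purified after expression in E. coli BL21-CodonPlus. These were incubated at 200 nM with a blocked, double-stranded custom Agilent array for 1 h at 25 °C in a buffer containing 50 µM zinc acetate, and the array was washed. The binding signal is per-feature fluorescence intensity (arbitrary units) on an Axon 4000B scanner.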

Row | Sequence | binding signal
1 | TTGAACAAAATTAACAATATCGATTAATTCTGTATATGCACGGAGTCACCTAGTGCAG | 9400 fluorescence intensity (a.u.)
2 | CCAAGAGTAATTGTATTTATCCGTGAGATAAATTATAGGGCGGAGTCACCTAGTGCAG | 7450 fluorescence intensity (a.u.)
3 | TTACATGTTAAATAAATTTTACTCCCAATTAGCTACGCGACGGAGTCACCTAGTGCAG | 7120 fluorescence intensity (a.u.)
4 | TATAATGTGTCCTGACTGACTCGATAACTTATGGTGGTAGCGGAGTCACCTAGTGCAG | 14800 fluorescence intensity (a.u.)
5 | CTACTAATTTCACAAACGTGGGCCCGGTCCATCCATCGTACGGAGTCACCTAGTGCAG | 6960 fluorescence intensity (a.u.)
6 | ATACAATGATATATCAAATTTCAACCGTTTTCCCAAAGCTCGGAGTCACCTAGTGCAG | 3550 fluorescence intensity (a.u.)
7 | ATATAACGGAATTATTTAAAGTTGACACCAATAGAGGACTCGGAGTCACCTAGTGCAG | 5960 fluorescence intensity (a.u.)
8 | AGATTAAATTAGAGGCCCATAACCGAGCGGCCCAATCATGCGGAGTCACCTAGTGCAG | 12800 fluorescence intensity (a.u.)
9 | ATTAAAATCAACTCCTGATTATAAGTATACCGTTTATTAGCGGAGTCACCTAGTGCAG | 13700 fluorescence intensity (a.u.)
10 | ACAATAAACTGCGGATTCTTTCTTTCTCTTCCATTCTTACCGGAGTCACCTAGTGCAG | 3660 fluorescence intensity (a.u.)
11 | CTCCAATCAACTTGCATAGACTGGCTGGTGGGGCCACGGTCGGAGTCACCTAGTGCAG | 31200 fluorescence intensity (a.u.)
12 | ATTCTCACTAGTTCCAAAATCAATTAGCATGTGCGTTGATCGGAGTCACCTAGTGCAG | 3410 fluorescence intensity (a.u.)
13 | ACTGTCATAGAACCTTGATTGCACGGTTTGTGTGAGTTTACGGAGTCACCTAGTGCAG | 5570 fluorescence intensity (a.u.)
14 | AAGAGAGAAACAATTACAGTTAATTAGGGTTAATCAGAAGCGGAGTCACCTAGTGCAG | 9810 fluorescence intensity (a.u.)
15 | CGCAAATTAGTCCAAGATTATGGATGGGTTTTATTAATAGCGGAGTCACCTAGTGCAG | 27500 fluorescence intensity (a.u.)
16 | TTCCTAAATTGCCATGTGGTGCTCCTTCAAACACTTCTAACGGAGTCACCTAGTGCAG | 5010 fluorescence intensity (a.u.)
17 | AAAACTTAATTAGTGCCAGGTCATACAGATTCCAGATAATCGGAGTCACCTAGTGCAG | 10600 fluorescence intensity (a.u.)
18 | ATGAAATCAAGGTTTTGCAAATTGAAATCCATGTTTTGGTCGGAGTCACCTAGTGCAG | 8140 fluorescence intensity (a.u.)
19 | TTCGTCGTCGTCCTCCTCAATCACATATTGGAGACAGCGACGGAGTCACCTAGTGCAG | 3510 fluorescence intensity (a.u.)
20 | TATGTAACTAATTAATATATGTATGCAGGCGCAACTCCTACGGAGTCACCTAGTGCAG | 9920 fluorescence intensity (a.u.)
21 | AAAACCTCCCGGTCAATCAAGCTATATATCTGTAATACACCGGAGTCACCTAGTGCAG | 5280 fluorescence intensity (a.u.)

Row | Sequence | binding signal
22 | ACTCCATCTCCTTGCTGATTATGAATTCCAGCACCCTCATCGGAGTCACCTAGTGCAG | 5520 fluorescence intensity (a.u.)
23 | GTATATTCTGATTCAATTATAATTTCCCCATCGATCATTTCGGAGTCACCTAGTGCAG | 9130 fluorescence intensity (a.u.)
24 | TGTGCTGATTTGGCAAAGAACTAAAGCGAGGAGAGATACACGGAGTCACCTAGTGCAG | 3360 fluorescence intensity (a.u.)
25 | AACAGTAATCTAATTATCTAATCTGAACTCCGGGTAGTTCCGGAGTCACCTAGTGCAG | 18200 fluorescence intensity (a.u.)
26 | GTGGTTTAATAATTTGATCAAAATATCTGTAGTTCACGGACGGAGTCACCTAGTGCAG | 9940 fluorescence intensity (a.u.)
27 | TTTGTAAATTGAGTGACCCGTTATATTTGGTATTTCAGTTCGGAGTCACCTAGTGCAG | 24100 fluorescence intensity (a.u.)
28 | TATAAATTAAAATTTGGCTTATAACCCCAAGCATAAACCTCGGAGTCACCTAGTGCAG | 21000 fluorescence intensity (a.u.)
29 | TTTTAATTTTCTTAATCAAGCCGACCGGGGTTAATGCTGCCGGAGTCACCTAGTGCAG | 28100 fluorescence intensity (a.u.)
30 | GTGATTGGCTTTGAGTACGATCATCAGATTGTATTGTTACCGGAGTCACCTAGTGCAG | 45000 fluorescence intensity (a.u.)
31 | ATTTTAAATTTACAATAAAATCAATAAGATCAAAGTGAAACGGAGTCACCTAGTGCAG | 3630 fluorescence intensity (a.u.)
32 | TCGGAGATTAGCACACAAAGACTAGCACACAGCAAGGCCCCGGAGTCACCTAGTGCAG | 3230 fluorescence intensity (a.u.)
33 | AACCATCCATGATTAGCGATTGATACGATGACGTTTGGGTCGGAGTCACCTAGTGCAG | 25600 fluorescence intensity (a.u.)
34 | TAAGTGGAGTAATTAGCTAAATAATCTATACTAGTAACCACGGAGTCACCTAGTGCAG | 4730 fluorescence intensity (a.u.)
35 | ATTAAAATATAATAAATTTGATATTAAGATTTTACCTGTACGGAGTCACCTAGTGCAG | 6670 fluorescence intensity (a.u.)
36 | AGAACAAATATAATTTAACACACAAACTTCATACTCCTATCGGAGTCACCTAGTGCAG | 4240 fluorescence intensity (a.u.)
37 | CAATTATCAATCAGTCTGAAATCTTGCATTTGCATTTGCACGGAGTCACCTAGTGCAG | 22400 fluorescence intensity (a.u.)
38 | ATCACGAATTTGTCAACATGGCCAATCAAGCAATATTCAGCGGAGTCACCTAGTGCAG | 6060 fluorescence intensity (a.u.)
39 | AAGAATAATTATACCGAGTACATATTAATCTGTGCAGCCTCGGAGTCACCTAGTGCAG | 14300 fluorescence intensity (a.u.)
40 | TGCTAATTTTATTGTTAATTTAACTCGTATCTTGTGGCAACGGAGTCACCTAGTGCAG | 25900 fluorescence intensity (a.u.)
41 | CATCAATCATGTAAAATAGATGTTACTAGATTTGTCATTACGGAGTCACCTAGTGCAG | 43300 fluorescence intensity (a.u.)
42 | CTAAACACGTCCTATCATGTCACGTAGATAATATGACACGCGGAGTCACCTAGTGCAG | 4110 fluorescence intensity (a.u.)
